Screen size: about 310,000 compounds; about 14,000 (4.5%) showed an effect of 50% or more. Effects have a minus sign here. The list shows a part of the results.
molecular target: human ether-à-go-go-related gene (hERG) potassium channel (human, UniProt Q12809); experiment: primary screen, population patch clamp on CHO cells stably expressing hERG
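Also: peak tail current of the secondary pulse compared with the same well before compound.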

Chain of human ether-à-go-go-related gene (hERG) potassium channel (Q12809 whole entry, looked up): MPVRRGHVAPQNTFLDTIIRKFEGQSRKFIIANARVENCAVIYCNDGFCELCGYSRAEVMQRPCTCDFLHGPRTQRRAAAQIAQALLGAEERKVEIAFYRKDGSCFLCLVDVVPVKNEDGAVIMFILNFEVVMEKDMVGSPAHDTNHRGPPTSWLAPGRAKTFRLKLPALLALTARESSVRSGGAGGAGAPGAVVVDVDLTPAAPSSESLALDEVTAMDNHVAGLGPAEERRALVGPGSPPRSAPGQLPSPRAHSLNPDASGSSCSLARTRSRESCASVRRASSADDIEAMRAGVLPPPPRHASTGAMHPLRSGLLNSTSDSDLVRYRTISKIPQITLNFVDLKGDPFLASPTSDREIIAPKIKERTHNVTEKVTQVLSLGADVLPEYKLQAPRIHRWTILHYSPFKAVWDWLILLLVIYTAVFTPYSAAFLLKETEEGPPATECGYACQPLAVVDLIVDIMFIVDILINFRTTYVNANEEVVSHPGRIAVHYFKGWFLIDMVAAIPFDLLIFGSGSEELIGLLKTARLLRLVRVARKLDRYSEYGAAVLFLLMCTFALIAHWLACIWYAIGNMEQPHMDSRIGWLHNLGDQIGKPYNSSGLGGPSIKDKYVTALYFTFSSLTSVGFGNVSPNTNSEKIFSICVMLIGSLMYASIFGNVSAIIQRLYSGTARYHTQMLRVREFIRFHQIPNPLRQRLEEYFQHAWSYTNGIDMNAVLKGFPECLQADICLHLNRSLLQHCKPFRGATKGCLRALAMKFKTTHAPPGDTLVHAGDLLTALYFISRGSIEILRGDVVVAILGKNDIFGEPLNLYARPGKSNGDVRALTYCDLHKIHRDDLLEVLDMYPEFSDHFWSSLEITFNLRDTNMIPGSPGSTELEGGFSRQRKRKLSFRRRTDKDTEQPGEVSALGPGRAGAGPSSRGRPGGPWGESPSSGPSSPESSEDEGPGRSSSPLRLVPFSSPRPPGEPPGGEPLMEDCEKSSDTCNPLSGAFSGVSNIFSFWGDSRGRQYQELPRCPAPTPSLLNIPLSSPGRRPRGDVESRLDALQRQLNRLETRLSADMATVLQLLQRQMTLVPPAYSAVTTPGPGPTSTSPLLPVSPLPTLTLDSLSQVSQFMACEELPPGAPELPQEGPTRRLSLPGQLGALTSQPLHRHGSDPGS

SMILES	hERG current change (%, negative = inhibition) at 10uM [%]
Fc1ccc(-c2nc3nc4ccccc4nc3n2Cc2ccco2)cc1	-43.2
COc1ccccc1NC(=O)C(O)C(O)C(=O)Nc1ccccc1OC (centres unmarked)	10.9
Cc1cccc(OCCSc2nc3ccccc3n2CC(=O)O)c1	10.8
COc1ccccc1NC(=O)Cc1noc(CSc2nnc(N)s2)n1	12.6
Cc1ccc(N2CC(C(=O)Nc3cccc(F)c3)CC2=O)cc1 (centres unmarked)	-6.24
Cc1cccc(N2CC(O)=C(c3nc4ccccc4n3C)C2=N)c1	-24
Cc1csc(NC(=O)CCS(=O)(=O)c2ccc(Br)cc2)n1	-4.86
CCCCC(=O)NNC(=S)NC(=O)c1cccc([N+](=O)[O-])c1	9.64
COc1ccc(/C=N/NC(=O)CCn2cnc3ccccc32)cc1	1.5
CCCCNC(=O)C1CCCN(S(=O)(=O)c2ccc(-n3cnnn3)cc2)C1 (centres unmarked)	-24.8
CCCCCc1cc(=O)oc2c(C(CCN3CCN(c4ccccc4)CC3)c3ccc4c(c3)OCO4)c(OC)cc(OC)c12 (centres unmarked)	18.7
COc1cccc(NCc2cc(=O)oc3cc(-c4ccccc4)c(O)cc23)c1	12.6
Cc1ccc(CNc2ccc3c(c2)OCO3)cc1	-4.29
O=C(c1ccc2c(c1)OCO2)N1CCNc2ccccc2C1	4.12
O=C(c1ccc(F)cc1)n1c(NCc2ccccc2)n[nH]c1=S	4.14
COC(=O)c1cc(Cl)c(NC(=O)Cc2ccccc2)cc1OC	-1.89
Cc1cc(N2CCOCC2)ccc1/C=C\[N+](=O)[O-]	-15.6
COc1ccc(N2CCN(S(=O)(=O)c3ccc(-c4cc(C)no4)s3)CC2)cc1	16.2
CN(CC(=O)N1CCOCC1)C(=O)CSc1nc2ccccc2s1	-0.119
Cc1ccnc(NC(=O)CCC(=O)N(CC(=O)NCCc2ccccc2)c2ccc(F)cc2)c1	1.18
Cc1cccc(NC2=C(Cl)C(=O)OC2OC(C)C)c1 (centres unmarked)	11.3
CCn1nc(C(=O)NNC(=O)C2CSC3(C)CCC(=O)N23)c2ccccc2c1=O (centres unmarked)	5.77

SMILES	hERG current change (%, negative = inhibition) at 10uM [%]
Cc1ccc(NS(=O)(=O)c2cc(C(=O)NCCSc3ccc(C)cc3)ccc2C)cc1	3.25
Oc1ccccc1/C=N/n1cnnc1	18.9
CN(C)c1ccc(CNc2ccccn2)cc1	11.2
CSCC[C@H](NC(=O)NCc1ccccc1F)C(=O)O	20.1
Cl.O=S(=O)(c1cccs1)N1CCN(C/C=C/c2ccccc2)CC1	-49.3
O=[N+]([O-])c1ccccc1S(=O)(=O)N1CCCc2ccccc21	-3.22
COc1ccc(/C=N/NC(=O)C(=O)/C=C2\NC3(CCCC3)Cc3ccccc32)cc1	8.03
COc1cc(/C=C/C(=O)O)ccc1S(=O)(=O)N1CCCc2ccccc21	18.7
CC(C)C[C@H]1CN=C(Nc2ccccc2)N1CCc1ccc(F)cc1	-62.4
CC(=O)OCCCNc1cc(SCc2ccco2)c2nonc2c1[N+](=O)[O-]	-46
O=S1(=O)c2ccccc2Nc2ccccc21	14.2
CCn1c(SCC(=O)N/N=C(/C)c2ccncc2)nc2ccccc21	-19.4
Cc1ccc(/C=N/NC(=O)c2nnn(-c3nonc3N)c2C)o1	-4.59
Cc1cc(OCC(=O)NNC(=O)c2cccnc2)cc(C)c1Cl	0.465
COc1ccc(-n2nc3c(c2NC(=O)CC(C)C)CS(=O)C3)cc1 (centres unmarked)	17.8
CC1(C)c2ccccc2-c2nc3ccccc3cc2C1O (centres unmarked)	4.1
Cc1ccc(OC(C)C(=O)Nc2ccc(S(=O)(=O)Nc3cc(C)on3)cc2)cc1 (centres unmarked)	-4.93
CCCCn1c(N)c(N(CCOC)C(=O)CSc2nc3ccc(C)cc3[nH]2)c(=O)[nH]c1=O	4.27
Cc1nsc2nc3c(F)c(F)c(F)c(F)c3cc12	17.2
CCOC(=O)C1=C(c2ccccc2)N=c2s/c(=C\c3cc(OC)c(OC)c(OC)c3)c(=O)n2C1c1cccs1 (centres unmarked)	0.0851
NNC(=O)c1sccc1OCc1cccc(C(F)(F)F)c1	3.95
CC(C)(C)Nc1nc2cc([N+](=O)[O-])ccc2o1	21.3

SMILES	hERG current change (%, negative = inhibition) at 10uM [%]
O=C1c2ccccc2NC(c2cnc3ccccc3n2)N1O (centres unmarked)	8.98
CCN1C(=O)N(CC)C(=O)C2(Cc3ccccc3N3CCN(c4ccccc4)CC32)C1=O (centres unmarked)	7.3
CCc1cccc(NC(=O)C2CCCN2S(=O)(=O)c2ccc3c(c2)CC(C)N3C(C)=O)c1 (centres unmarked)	-71.2
O=C(Cn1cnc2c(cnn2-c2ccc(F)cc2)c1=O)N1CCCc2ccccc21	-27
CC1(C(=O)N2CCC(CO)(Cc3cccc(C(F)(F)F)c3)CC2)CC1	4.02
CCCCOc1ccc(C(=O)N/C(=C\c2ccc(OC)cc2)C(=O)OCc2ccco2)cc1	-1.47
CN(CCc1ccccn1)C(=O)c1cc(COc2ccc(F)cc2F)on1	-2.82
O=C(CSc1nc(NS(=O)(=O)c2ccccc2)cc(=O)[nH]1)Nc1ccc(F)cc1	10.7
Cc1cccc(NC(=O)CC(C)(C)C)c1	3.01
Cc1c(/C(O)=C2\C(=O)C(=O)N(CCN(C)C)C2c2cccs2)cnn1-c1ccccc1 (centres unmarked)	-1.9
CCC(C)[C@H](NC(=O)NC1CC1)C(=O)O (some centres unmarked)	-1.44
C=CCSc1nc2c(c(=O)[nH]c(=O)n2C)n1C/C=C(/C)Cl	-20.8
Cc1ccc(N2CCN(C(=O)C3CCC(=O)N(Cc4ccc(Cl)cc4)C3)CC2)c(C)c1 (centres unmarked)	-23.7
COC(=O)c1sc(N2C(=O)C(O)=C(C(=O)c3ccc(C)o3)C2c2cc(OC)ccc2OC)nc1C (centres unmarked)	16.7
CCCCNC(=O)c1sc(=S)n2c1[nH]c(=O)c1ccc(C(=O)NCCc3ccc(OC)c(OC)c3)cc12	11.7
COc1ccc([N+](=O)[O-])cc1N/C(=N/S(=O)(=O)c1ccccc1)c1ccccc1	-57.8
Cc1cccc(-n2c(C)cc(C=C3C(=O)c4ccccc4C3=O)c2C)c1	21.1
COc1ccccc1CCC(=O)N1CCN(S(=O)(=O)c2cccc(F)c2)CC1	-24.8
CCOc1ccc(N(CC(=O)N2CCCCCC2)S(=O)(=O)c2ccc(C)cc2)cc1	-29.1
NC(=O)CC(NC(=O)c1ccccc1)c1ccc(NC2CCCCC2)c([N+](=O)[O-])c1 (centres unmarked)	16.4
COc1ccc(S(=O)(=O)N2CCOCC2)cc1C(=O)Nc1ccon1	-4.81
Cc1nnc2c(NC3CCCCC3)nc3ccccc3n12	1.89

SMILES	hERG current change (%, negative = inhibition) at 10uM [%]
O=C(CCCn1c(=S)[nH]c2cc3c(cc2c1=O)OCO3)NCc1ccco1	5.69
Cc1ccc(NC(=O)N2CCCC2C(=O)NCCC2=CCCCC2)cc1 (centres unmarked)	-14.6
COc1ccc(CNC(=O)Cn2nc(-c3ccc4c(c3)OCCO4)ccc2=O)cc1	-5.05
COc1ccccc1CN1CCN(Cc2ccc(Cl)cc2)CC1.O=C(O)C(=O)O	-62.5
Cc1nc(C)c(C(=O)Nc2cccc(C)c2C)o1	-0.939
O=C(CCC(=O)c1cccs1)NNC(=O)c1ccccc1Cl	-10.4
CC1=NN(C(=O)c2csc(C)c2)C(O)(C(F)(F)F)C1 (centres unmarked)	15.6
O=C(Cn1c(=O)n(CCCCC(=O)NC2CCCC2)c(=O)c2ccccc21)NCCC1=CCCCC1	12
COC(=O)c1cn(NC(=O)C2CCCCC2)c(=O)c2ccccc12	2.64
O=C(COC(=O)Cn1cnc2ccccc2c1=O)NCC12CC3CC(CC(C3)C1)C2	5.66
Cc1ccc(CSc2nnc(SCC(=O)N/N=C/c3ccc(C(=O)O)cc3)s2)cc1	14.2
NC(=O)CC(NC(=O)Cc1ccc(Cl)cc1)c1ccc(N2CCN(c3ccccn3)CC2)c([N+](=O)[O-])c1 (centres unmarked)	25.9
O=C(NCc1ccco1)c1ccc(COc2cc(Cl)ccc2Cl)cc1	-5.22
O=C(CN1C(=O)NC2(CCCCC2)C1=O)N1CCN(S(=O)(=O)c2cccc(F)c2)CC1	-61.8
Nc1cccc(NC(=O)CCC(=O)NCc2ccco2)c1	10.6
CCOc1ccc(C(=O)CC(Sc2ccc(C)cc2)C(=O)O)cc1 (centres unmarked)	-1.67
Cc1cccc2cc(/C=N/NC(=O)CN3CCCCC3)c(Cl)nc12	-12.8
COc1cc(OC)cc(-c2nnc(NC(=O)c3ccc4c(c3)OCCO4)o2)c1	0.541
CS(=O)(=O)c1ccccc1C(=O)Nc1ccc2sccc2c1	10.5
O=C(CCCC(=O)N/N=C/c1ccccc1C(=O)O)N/N=C/c1ccccc1C(=O)O	1.62

From article PMC4336329 (PLoS ONE, 2015)
